# The supplement of paper PMC10037445
# Several values for one entry are separate records, joined by “and”; a condition that tells them apart may be missing. Equal entries are not always repeated. ± gives the standard deviation of the averaged measurements. The full ranking holds about 2,900 compounds; the median of “IRF Lucia reporter activity, fold change vs agonist alone” is about 0.9, and the highest 2% start at about 2.8. The list shows a part of the results.
# Assays:
# RAW-Dual [1] = assay: IRF Lucia reporter activity, fold change vs agonist alone; higher = enhanced IRF activity; conditions: library stock concentration (final ~1000-fold dilution): 10 mM, agonist: MPLA (TLR4) […]
# How it was run: (§1)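 Cytotoxic wells were those whose IncuCyte confluency was below 70% of agonist controls in both mask sets. The cells were RAW-Dual macrophages at 50,000 cells/well in DMEM on 384-well plates, dosed with 50 nL of library stock by pin tool, stimulated with a PRR agonist 1 h later, and kept at 37 °C, 5% CO2 for 20 hours. IRF and NF-κB reporter activity, as fold change over agonist-alone wells, came from supernatant read by QuantiLuc luminescence and QuantiBlue absorbance, respectively.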
# RAW-Dual [2] = assay: IRF Lucia reporter activity, fold change vs agonist alone; cytotoxicity flag (confluency mask): not cytotoxic; higher = enhanced IRF activity
# How it was run: as §1
# RAW-Dual [3] = assay: IRF Lucia reporter activity, fold change vs agonist alone; cytotoxicity flag (confluency mask): cytotoxic (confluency <70% of control); higher = enhanced IRF activity
# How it was run: as §1
# [4] = cytotoxicity flag (confluency mask): not cytotoxic
# [5] = agonist: 3'3'-cGAMP (STING) 10 ug/mL
smiles,measurement,setting,value
CC(Nc1ncnc(N)c1C#N)c1cc2cccc(-c3ccc(=O)n(C)c3)c2c(=O)n1C(C)C (stereo not drawn),IRF Lucia reporter activity,RAW-Dual [1]; [4],7.07
CC(Nc1ncnc(N)c1C#N)c1cc2cccc(-c3ccc(=O)n(C)c3)c2c(=O)n1C(C)C (stereo not drawn) (library stock concentration (final ~1000-fold dilution): 10 mM),IRF Lucia reporter activity,RAW-Dual [2]; [5],1.14
same,IRF Lucia reporter activity,RAW-Dual [2]; agonist: LPS (TLR4) 0.1 ug/mL,8.45
CC1OC(OC2C(O)C(OCCc3ccc(O)c(O)c3)OC(CO)C2OC(=O)/C=C/c2ccc(O)c(O)c2)C(O)C(O)C1O (stereo not drawn) (library stock concentration (final ~1000-fold dilution): 10 mM),IRF Lucia reporter activity,RAW-Dual [2]; [5],1.02
same,IRF Lucia reporter activity,RAW-Dual [2]; agonist: LPS (TLR4) 0.1 ug/mL,1.15
CC1OC(OC2C(O)C(OCCc3ccc(O)c(O)c3)OC(CO)C2OC(=O)/C=C/c2ccc(O)c(O)c2)C(O)C(O)C1O (stereo not drawn),IRF Lucia reporter activity,RAW-Dual [1]; [4],1.02
COc1ccc2[nH]cc(C=C3C(=O)Nc4ccc(NC(=O)CCN5CCCCC5)cc43)c2c1 (library stock concentration (final ~1000-fold dilution): 10 mM),IRF Lucia reporter activity,RAW-Dual [3]; [5],0.5
same,IRF Lucia reporter activity,RAW-Dual [3]; agonist: LPS (TLR4) 0.1 ug/mL,0.815
Cl.Cl.OCCN1CCN(CC/C=C2/c3ccccc3Sc3ccc(C(F)(F)F)cc32)CC1 (library stock concentration (final ~1000-fold dilution): 10 mM),IRF Lucia reporter activity,RAW-Dual [3]; [5],0.504
same,IRF Lucia reporter activity,RAW-Dual [3]; agonist: LPS (TLR4) 0.1 ug/mL,0.656
Cl.Cl.OCCN1CCN(CC/C=C2/c3ccccc3Sc3ccc(C(F)(F)F)cc32)CC1,IRF Lucia reporter activity,RAW-Dual [1]; cytotoxicity flag (confluency mask): cytotoxic (confluency <70% of control),1.02
COc1c(Cl)cc2c([nH]c3cnccc32)c1NC(=O)c1cccnc1C (library stock concentration (final ~1000-fold dilution): 10 mM),IRF Lucia reporter activity,RAW-Dual [2]; [5],0.361
same,IRF Lucia reporter activity,RAW-Dual [2]; agonist: LPS (TLR4) 0.1 ug/mL,0.346
O=C(/C=C/c1cccnc1)NCCCCC1CCN(C(=O)c2ccccc2)CC1 (library stock concentration (final ~1000-fold dilution): 10 mM),IRF Lucia reporter activity,RAW-Dual [2]; [5],0.698
same,IRF Lucia reporter activity,RAW-Dual [2]; agonist: LPS (TLR4) 0.1 ug/mL,0.695
O=C(/C=C/c1cccnc1)NCCCCC1CCN(C(=O)c2ccccc2)CC1,IRF Lucia reporter activity,RAW-Dual [1]; [4],0.813
CCOC(=O)c1c2c3c(cccc3[nH]c1=O)C(=O)c1ccccc1-2 (library stock concentration (final ~1000-fold dilution): 10 mM),IRF Lucia reporter activity,RAW-Dual [2]; [5],0.997
same,IRF Lucia reporter activity,RAW-Dual [2]; agonist: LPS (TLR4) 0.1 ug/mL,0.492
CN(Cc1cc(Br)cc(Br)c1N)C1CCCCC1 (library stock concentration (final ~1000-fold dilution): 10 mM),IRF Lucia reporter activity,RAW-Dual [3]; [5],0.733
same,IRF Lucia reporter activity,RAW-Dual [3]; agonist: LPS (TLR4) 0.1 ug/mL,1.49
Nc1nc(N)c2nc(-c3cccc(O)c3)c(-c3cccc(O)c3)nc2n1 (library stock concentration (final ~1000-fold dilution): 10 mM),IRF Lucia reporter activity,RAW-Dual [2]; [5],0.982
same,IRF Lucia reporter activity,RAW-Dual [2]; agonist: LPS (TLR4) 0.1 ug/mL,1
Nc1nc(N)c2nc(-c3cccc(O)c3)c(-c3cccc(O)c3)nc2n1,IRF Lucia reporter activity,RAW-Dual [1]; [4],1.08
Cn1cnc2c(F)c(Nc3ccc(Br)cc3Cl)c(C(=O)NOCCO)cc21,IRF Lucia reporter activity,RAW-Dual [1]; [4],2.77
Cn1cnc2c(F)c(Nc3ccc(Br)cc3Cl)c(C(=O)NOCCO)cc21 (library stock concentration (final ~1000-fold dilution): 10 mM),IRF Lucia reporter activity,RAW-Dual [2]; [5],0.69
same,IRF Lucia reporter activity,RAW-Dual [2]; agonist: LPS (TLR4) 0.1 ug/mL,3.1
Cl.OCCNCc1ccc(OCc2ccc(F)cc2)c(OCc2ccc(F)cc2)c1 (library stock concentration (final ~1000-fold dilution): 10 mM),IRF Lucia reporter activity,RAW-Dual [3]; [5],0.0797
same,IRF Lucia reporter activity,RAW-Dual [3]; agonist: LPS (TLR4) 0.1 ug/mL,0.952
NC(=O)c1ccccc1,IRF Lucia reporter activity,RAW-Dual [1]; [4],0.951
NC(=O)c1ccccc1 (library stock concentration (final ~1000-fold dilution): 10 mM),IRF Lucia reporter activity,RAW-Dual [2]; [5],1.04
same,IRF Lucia reporter activity,RAW-Dual [2]; agonist: LPS (TLR4) 0.1 ug/mL,1.13
O=C(c1ccccc1)c1ccc2nc(NC(=O)c3csc(C4CCN(c5ncnc6ccsc56)CC4)n3)[nH]c2c1,IRF Lucia reporter activity,RAW-Dual [1]; [4],1.73 ± 0.62
O=C(c1ccccc1)c1ccc2nc(NC(=O)c3csc(C4CCN(c5ncnc6ccsc56)CC4)n3)[nH]c2c1 (library stock concentration (final ~1000-fold dilution): 10 mM),IRF Lucia reporter activity,RAW-Dual [2]; [5],0.269 and 0.414
same,IRF Lucia reporter activity,RAW-Dual [2]; agonist: LPS (TLR4) 0.1 ug/mL,2.37 and 1.82
Cn1c(N2CCCCS2(=O)=O)nc(C(=O)NCc2ccc(F)cc2)c(O)c1=O (library stock concentration (final ~1000-fold dilution): 10 mM),IRF Lucia reporter activity,RAW-Dual [2]; [5],1.05
same,IRF Lucia reporter activity,RAW-Dual [2]; agonist: LPS (TLR4) 0.1 ug/mL,0.931
Cn1c(N2CCCCS2(=O)=O)nc(C(=O)NCc2ccc(F)cc2)c(O)c1=O,IRF Lucia reporter activity,RAW-Dual [1]; [4],1.65
C=CC1(C)CC(OC(=O)CSCCN(CC)CC)C2(C)C(C)CCC3(CCC(=O)C32)C(C)C1O.O=C(O)/C=C/C(=O)O (stereo not drawn) (library stock concentration (final ~1000-fold dilution): 10 mM),IRF Lucia reporter activity,RAW-Dual [2]; [5],0.347
same,IRF Lucia reporter activity,RAW-Dual [2]; agonist: LPS (TLR4) 0.1 ug/mL,0.803
C=CC1(C)CC(OC(=O)CSCCN(CC)CC)C2(C)C(C)CCC3(CCC(=O)C32)C(C)C1O.O=C(O)/C=C/C(=O)O (stereo not drawn),IRF Lucia reporter activity,RAW-Dual [1]; [4],0.996
COC(=O)NC(C(=O)N1CCCC1c1ncc(-c2ccc(-c3ccc(-c4cnc(C5CCCN5C(=O)C(NC(=O)OC)C(C)C)[nH]4)cc3)cc2)[nH]1)C(C)C.Cl.Cl (stereo not drawn),IRF Lucia reporter activity,RAW-Dual [1]; [4],5.97
COC(=O)NC(C(=O)N1CCCC1c1ncc(-c2ccc(-c3ccc(-c4cnc(C5CCCN5C(=O)C(NC(=O)OC)C(C)C)[nH]4)cc3)cc2)[nH]1)C(C)C.Cl.Cl (stereo not drawn) (library stock concentration (final ~1000-fold dilution): 10 mM),IRF Lucia reporter activity,RAW-Dual [2]; [5],0.948
same,IRF Lucia reporter activity,RAW-Dual [2]; agonist: LPS (TLR4) 0.1 ug/mL,7.56
